± gives the standard deviation of the averaged measurements. Over roughly 33,000 sequences, “E-score (dimensionless, -0.5 to 0.5)” has its median near -0.046; the highest 2% begin near 0.36. The list shows a part of the results.
Test system: T1, SpTbr T-box DNA-binding domain (GST fusion)
T1 sequence: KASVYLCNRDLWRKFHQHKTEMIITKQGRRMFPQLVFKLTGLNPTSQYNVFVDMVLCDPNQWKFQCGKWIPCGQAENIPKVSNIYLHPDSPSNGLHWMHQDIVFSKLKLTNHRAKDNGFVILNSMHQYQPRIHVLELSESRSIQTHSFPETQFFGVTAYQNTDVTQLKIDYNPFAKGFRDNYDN
Test: PBM E-score of 8-mer (E-score (dimensionless, -0.5 to 0.5)); Tbr is Tbrain of the sea star Patiria miniata (Pm) or the sea urchin Strongylocentrotus purpuratus (Sp); higher = stronger binding preference; most listed sequences are background and not binding sites
Conditions: the construct has about 5 more residues each side
In short: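 GST-fused Tbr T-box DNA-binding domains (the whole T-box plus about five flanking residues) were expressed in BL21 E. coli at 20 °C and purified by glutathione affinity chromatography. Universal Agilent oligonucleotide arrays were made double-stranded by primer extension, incubated with 200 nM protein in PBS (pH 7.5), then scanned and quantified. Every ungapped 8-mer was scored from probe intensities. The Universal PBM Analysis Suite gave each word an enrichment E-score, averaged over duplicate arrays.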

Sequence | PBM E-score of 8-mer
AACGCATC | -0.0722 ± 0.077
AGTTAAGC | -0.128 ± 0.015
ACTAACAC | 0.402 ± 0.0071
CGCGAAAA | 0.347 ± 0.04
CCTAATCG | -0.0735 ± 0.03
CTTTTGAA | -0.19 ± 0.05
CTTGGAGA | 0.0481 ± 0.051
ATAATACG | -0.164 ± 0.022
AACGGAAA | -0.181 ± 0.007
CAGGCCCG | -0.165 ± 0.031
CACTCACG | 0.266 ± 0.052
ACATACTG | 0.177 ± 0.032
CGGTGCTC | -0.153 ± 0.061
AGTCTCGA | 0.0678 ± 0.057
CTTCTCCC | -0.0328 ± 0.015
GTCCAGCA | -0.295 ± 0.06
CTGATACC | -0.127 ± 0.061
AGAAATCG | -0.0204 ± 0.017
GACTCATA | -0.127 ± 0.03
CGGCGCTC | 0.0305 ± 0.016
TCGCGTAA | 0.222 ± 0.071
AGTCCCCG | -0.205 ± 0.0044
AGTGAGAT | 0.287 ± 0.033
AATTGATC | 0.105 ± 0.036
CCGCTGGC | -0.00683 ± 0.0067

Sequence | PBM E-score of 8-mer
GAAACACC | 0.256 ± 0.012
CATAAGGG | -0.134 ± 0.055
GCCCACTA | -0.0422 ± 0.07
AGCCTATA | -0.0951 ± 0.011
AGGGTCGG | -0.106 ± 0.043
AGAGCACT | -0.101 ± 0.045
CGGGTATA | 0.00404 ± 0.063
CCCTTGCG | -0.0683 ± 0.034
ATGCGTAA | 0.0126 ± 0.018
TATACCCA | -0.25 ± 0.027
CGCAAGTC | 0.125 ± 0.012
AGTGTATC | -0.00438 ± 0.0012
ATGACCGA | -0.037 ± 0.011
CTACCCGA | -0.189 ± 0.061
AGAGGCGG | -0.0721 ± 0.049
AAACTCTG | -0.0161 ± 0.031
CGGGCACC | -0.0494 ± 0.071
AAAAGTTC | -0.0424 ± 0.077
ATTTTCTA | -0.243 ± 0.068
GGTACCAA | -0.0861 ± 0.086
TAGTGAAA | 0.117 ± 0.023
CGTACTAG | -0.118 ± 0.054
GGACCTTA | -0.142 ± 0.051
CCCTAGGC | -0.0753 ± 0.015
CACTGTCC | -0.0715 ± 0.022

Sequence | PBM E-score of 8-mer
AACTGATA | 0.139 ± 0.039
CTGCAACC | -0.0536 ± 0.021
CATTTGAA | -0.2 ± 0.012
CTCTCCGC | -0.0588 ± 0.019
GTACTTTA | -0.0653 ± 0.064
CCCAGCCG | -0.155 ± 0.011
AATAGATG | 0.0328 ± 0.094
GTTAGTTA | 0.0799 ± 0.077
CGTGCTGC | 0.0546 ± 0.012
GCCGAGCC | 0.0327 ± 0.056
ACACTCGA | 0.283 ± 0.032
AAAAGGGC | 0.0135 ± 0.081
AGGTAGAA | -0.0573 ± 0.049
CGAGTTGA | 0.141 ± 0.015
GCACGGAA | -0.0749 ± 0.024
GCGCATCA | 0.00186 ± 0.0034
AAAGGTGC | 0.414 ± 0.01
GGGACTAA | -0.279 ± 0.029
AGCTGCTC | -0.0138 ± 0.042
CAGCTTAC | 0.0578 ± 0.022
ATCGTACC | -0.157 ± 0.03
AAGTCCAA | -0.256 ± 0.05
CACGCAAA | 0.191 ± 0.0077
AATTTCCA | -0.179 ± 0.038
GGTAGGCA | -0.079 ± 0.028

Sequence | PBM E-score of 8-mer
TACAGGGA | -0.244 ± 0.025
AAGCGACC | -0.243 ± 0.02
CGTCGGAC | 0.0309 ± 0.014
AACGACCA | 0.0727 ± 0.019
GGGGGCTA | -0.158 ± 0.037
AGAACTGG | -0.118 ± 0.044
GGAGGACA | -0.196 ± 0.045
ATGCTTCA | -0.077 ± 0.031
AATGGCAT | 0.0574 ± 0.0016
AATACTGA | -0.0577 ± 0.0093
GGACCAGA | -0.246 ± 0.0026
TAAGACCA | -0.135 ± 0.052
ACATACGG | 0.0524 ± 0.05
GGTCTAAA | 0.0571 ± 0.071
CTCCACCA | -0.182 ± 0.078
ACTTTCTA | 0.0124 ± 0.018
GAAACAAC | 0.087 ± 0.018
CGAGCTGC | 0.1 ± 0.054
AATGAGCG | -0.18 ± 0.018
CGATATCC | -0.0408 ± 0.052
AATTGGTG | 0.0304 ± 0.052
GCGTCCAC | 0.0462 ± 0.046
ACGGCGTC | 0.108 ± 0.059
CGTATAAC | -0.0237 ± 0.03
GCTTAAAA | -0.315 ± 0.029

Sequence | PBM E-score of 8-mer
CATTTCCA | -0.162 ± 0.03
ATACTGCC | -0.236 ± 0.033
CAGTGTCC | -0.0304 ± 0.04
CCACCTTA | 0.213 ± 0.01
GTCAGGAA | 0.13 ± 0.092
ATAGCTTG | -0.0926 ± 0.011
ACGCTGAT | -0.0607 ± 0.083
AACCGGCT | -0.226 ± 0.059
GTAAAATA | -0.282 ± 0.098
CTCGCCCC | 0.132 ± 0.0061
TAGTAAGA | -0.164 ± 0.011
ATAATAAG | -0.00135 ± 0.053
CGGCGGTC | -0.208 ± 0.0038
CCTCACTC | 0.184 ± 0.025
AGGCTAAC | 0.0112 ± 0.063
GTGTTGTA | 0.273 ± 0.065
CAACACCC | 0.433 ± 0.012
AACAAGTC | 0.159 ± 0.088
CTCGGGGA | -0.217 ± 0.017
AAGACATA | -0.151 ± 0.0036
CTCCAGAA | -0.227 ± 0.033
ACATCTAT | 0.139 ± 0.0045
GGACATAA | -0.0535 ± 0.023
AGCACCCC | 0.27 ± 0.036
CGCGGGAA | 0.166 ± 0.016

Sequence | PBM E-score of 8-mer
GTGAGTTA | 0.115 ± 0.042
AGTGATGA | 0.229 ± 0.033
CTCGCAAG | 0.204 ± 0.032
AGTATTAA | -0.00558 ± 0.076
CAACTGAA | -0.018 ± 0.03
ATGGGGCA | -0.231 ± 0.014
GGAGATCA | -0.114 ± 0.015
ACCCAGGC | -0.115 ± 0.11
CCGCCGAA | -0.127 ± 0.13
CACGGGAC | -0.0856 ± 0.0094
GCCCAAGC | -0.24 ± 0.0088
AATGCGAC | 0.0873 ± 0.0027
GCAGCCGC | -0.0103 ± 0.06
CTAAATTA | -0.0861 ± 0.098
AGTAGCGC | 0.224 ± 0.014
GCTTGGAC | -0.281 ± 0.0098
GGTCGCCA | 0.114 ± 0.069
AAAACTTG | -0.145 ± 0.051
CCATCCTA | -0.0982 ± 0.061
CGGGCCAC | -0.00788 ± 0.037
TAGAATCA | -0.0112 ± 0.055
ACTAGTGA | 0.215 ± 0.0054
ATTAACCC | -0.0932 ± 0.059
CTCCCTTA | 0.0182 ± 0.0024
CCCATGTC | -0.173 ± 0.024

Sequence | PBM E-score of 8-mer
CCCAATGA | -0.198 ± 0.013
AAGGTGCT | 0.4354 ± 0.0022
TCGAAAGA | -0.186 ± 0.024
CTAAGCAC | -0.0895 ± 0.035
GACTAGGC | -0.0291 ± 0.016
CTCCATCC | -0.107 ± 0.033
GGTATGGA | -0.22 ± 0.034
AACAACCA | 0.0272 ± 0.04
ACGCGTAG | 0.207 ± 0.0081
CATCACGG | 0.152 ± 0.022
GGATCTAC | -0.184 ± 0.047
ATACAAGA | -0.129 ± 0.086
AACTGACC | -0.171 ± 0.019
CGATGTAA | -0.0669 ± 0.0028
GATCTCAC | 0.371 ± 0.02
TCTCGTCA | 0.255 ± 0.011
ATCTATGC | -0.197 ± 0.03
CCGACTAA | -0.171 ± 0.011
AAGATCAA | -0.308 ± 0.008
GACACTAA | 0.281 ± 0.021
AATAGCCA | -0.144 ± 0.11
GTTGCAAA | 0.174 ± 0.0024

Source: the supplement of paper PMC4166925
